Results: the supplement of paper PMC3334620
In all, about 33,000 sequences were measured (“E-score (-0.5 to 0.5)”: median about -0.012, highest 2% from about 0.29 on). Some of the results follow.

Each sequence was assayed against T1, Ybr033w (UniProt P38073) (assay: PBM E-score (8-mer binding enrichment) (E-score (-0.5 to 0.5)); higher = stronger / more preferred TF binding; most listed sequences are background and not binding sites). Settings: protein concentration: 200 nM; construct: GST-full length.
T1 sequence: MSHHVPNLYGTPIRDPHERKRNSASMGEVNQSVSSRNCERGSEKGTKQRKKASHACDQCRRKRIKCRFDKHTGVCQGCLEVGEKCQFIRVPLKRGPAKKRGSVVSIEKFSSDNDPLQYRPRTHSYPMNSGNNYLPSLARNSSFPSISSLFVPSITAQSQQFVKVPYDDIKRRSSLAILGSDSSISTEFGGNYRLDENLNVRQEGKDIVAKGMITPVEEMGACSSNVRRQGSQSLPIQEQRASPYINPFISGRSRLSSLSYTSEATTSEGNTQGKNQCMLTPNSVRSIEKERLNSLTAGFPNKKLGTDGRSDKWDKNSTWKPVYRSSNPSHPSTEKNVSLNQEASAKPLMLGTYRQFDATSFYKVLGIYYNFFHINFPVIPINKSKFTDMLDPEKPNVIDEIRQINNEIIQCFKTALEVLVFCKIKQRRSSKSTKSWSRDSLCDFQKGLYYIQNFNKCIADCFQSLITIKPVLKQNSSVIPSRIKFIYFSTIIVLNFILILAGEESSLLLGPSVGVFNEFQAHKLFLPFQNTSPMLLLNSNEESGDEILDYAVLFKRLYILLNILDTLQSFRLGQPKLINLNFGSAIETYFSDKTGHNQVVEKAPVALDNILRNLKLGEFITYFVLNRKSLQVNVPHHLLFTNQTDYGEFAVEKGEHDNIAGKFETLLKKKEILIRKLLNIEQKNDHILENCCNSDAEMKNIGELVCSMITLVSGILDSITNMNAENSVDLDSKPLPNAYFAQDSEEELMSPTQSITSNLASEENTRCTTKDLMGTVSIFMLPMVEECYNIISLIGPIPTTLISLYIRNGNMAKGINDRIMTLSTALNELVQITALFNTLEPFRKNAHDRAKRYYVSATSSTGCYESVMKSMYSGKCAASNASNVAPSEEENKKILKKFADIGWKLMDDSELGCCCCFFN
Summary of the method: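 Universal all-10-mer Agilent arrays, double-stranded by primer extension on fresh or once-stripped slides, were probed with about 100-200 nM GST-tagged yeast transcription factors made by PURExpress. Fluorescent anti-GST detected bound protein, and masliner normalised the scans. E-scores from the Universal PBM Analysis Suite were given to each ungapped eight-base word pooled with its reverse complement.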

Sequence | PBM E-score
AGCACAAA | 0.205
GAGTTTTA | 0.146
CACCATGC | -0.0326
GCGGAATA | 0.293
GCATGAAC | 0.0783
CGGCGTTC | -0.104
CGCATACA | 0.0637
TATACAGA | 0.256
GCGGTAGA | -0.109
ACTCTTAT | 0.284
CATCGCAC | -0.136
CGCGTCTC | -0.0288
TCAGGACA | 0.0719
GACCGTTA | -0.0688
ACCCACTG | 0.0586
CAGTACCC | -0.184
ACCTAAAA | 0.1
GGCGTTCA | -0.0197
ACACTACA | 0.17
CGTGACGA | 0.0211
TCCCGCAA | -0.0556
GATCACGC | 0.0676
GGAGTTGA | -0.0103
ACGGAGGC | -0.0923
CCAGTAGG | -0.077

Sequence | PBM E-score
ACGAATAG | 0.026
CTCCTAGC | -0.17
TATTACCA | 0.196
ACTCTCCG | 0.00209
TATAGTAA | 0.282
CCCCCCTC | -0.377
TAGTACGA | 0.119
AAGCGCAT | -0.0621
CGAGTCGC | -0.117
GACAACAC | -0.223
ACCAATTA | 0.221
AGCTACAA | 0.0561
ATGATGGC | -0.0701
ACGAGAGA | -0.103
AAATCACA | 0.052
ATTCAGTC | -0.0995
AAAATAGA | 0.332
CGATCCCC | -0.34
AGCGGCCA | -0.238
CCCGTGCC | -0.302
GATGCTAC | 0.0488
CAGTTATC | -0.0111
AGTGCTGC | -0.0461
CTATGAGA | 0.042
CAGGTTAA | -0.00969

Sequence | PBM E-score
AAACTCTA | 0.161
AAAATCTA | 0.289
GTTTTTAA | 0.158
AACCCATA | 0.259
ATCGCCGG | -0.103
ACCGTCGG | -0.203
AGTGACTG | -0.123
AGCTCAAC | 0.104
ACCCCTCG | -0.119
GCTCCACC | -0.305
AACTCGGT | 0.105
AATGAAAT | 0.282
AACATTGT | 0.158
AGTATCCC | -0.135
AAAAAGAA | 0.22
GCTCTACC | -0.168
TCTCTGAA | -0.0463
ATAGAATC | 0.035
AATTACGG | 0.176
ACATGATG | -0.00243
CCAGACCG | -0.116
GTAAGAAA | 0.0934
CATCCACC | 0.0603
AGCCTCGC | -0.197
AGCATTGG | 0.103

Sequence | PBM E-score
AACGAGTC | -0.115
GTGAGTCA | -0.00046
ATTAGTGA | 0.102
CATAACCA | 0.0466
AGCCCGGC | -0.228
CCCACAGC | -0.146
AAAGTACT | 0.177
ATAATTAG | 0.272
AAAGCGTC | -0.071
TCCCATCA | -0.0886
ACCATGTG | -0.0472
GTACAAAC | 0.0352
GCGTGGAA | -0.0974
TATGGTAA | 0.178
GGCATGTA | 0.0243
AACCCAGG | -0.0839
ATTGCGAA | -0.019
AGTCGGTA | -0.146
ACTCTACC | -0.0555
ATCATGCC | -0.0169
TGGAAGAA | 0.347
GGTGGTAA | 0.137
GAGACTCC | -0.173
CAAAAGTG | -0.0857
CGCTGTCC | 0.0111

Sequence | PBM E-score
AGGAGAGA | 0.0939
GTCAAGTA | -0.298
CGAAAGTC | -0.239
GTCCACTA | -0.0107
AGTAAAAG | 0.229
CACTGCGC | -0.0775
AAAGAGTG | -0.0808
CGCGTGTC | 0.0664
TATGGGCA | -0.2
GCGGCCCC | -0.401
TGTTTAAA | 0.143
AGGTCAGG | -0.233
ATCTGGAC | -0.177
ATTTTAGC | 0.102
GGATTTCA | 0.0761
ATTAGGTG | 0.115
ACAGCTAA | 0.0682
ACCTGGTA | -0.211
GAAAAGCC | 0.0336
ATCATACA | 0.25
ATCATTAG | 0.16
GAACAAGC | -0.0592
CTTGGTCA | 0.183
GCACGCTA | -0.131
GCGGAAGA | 0.236

Sequence | PBM E-score
CGCTCATC | -0.0261
CAGATCGC | -0.164
GGGTCACC | -0.308
ATATCCCC | -0.0237
AGCGGGAG | -0.0882
AGGGCTAC | -0.247
ATGGGTCC | -0.26
AGCAGCTC | -0.194
ACGGTCCC | -0.258
AGCAAACC | 0.145
CGGTCACG | -0.212
GCCGGCTA | -0.148
ATCTAGTC | 0.026
CGTTATGA | 0.0351
CGTCCTCC | -0.314
AGCTAAAC | -0.0716
AAACTTAC | 0.168
AAAACTGT | 0.26
CTGACGAA | 0.0158
AGAGTCGA | -0.0892
GCACTGCA | 0.0352
GACGCTAA | -0.189
CCCCACCA | -0.1
ATGGGATC | -0.0796
AGTCACTC | 0.102

Sequence | PBM E-score
AGTTGATA | 0.211
CTGAACAG | 0.00549
GACTCACA | -0.0481
CTCGATCA | -0.0826
ACGCGAAA | 0.181
CACCTGTC | -0.103
AGCACTCC | -0.0492
GGTATTCA | 0.134
GTCTTATA | 0.0162
ACAGGGCA | 0.00245
CAGATAAG | -0.0549
GTCCCGCA | -0.23
GCGCTGCA | 0.0363
CTGGAACA | 0.31
CGCGCTGC | -0.0548
CCCGCTGC | -0.347
GCAGGCGC | -0.322
GCGCACGC | -0.185
ATTCGAAC | 0.246
GTCGGGGA | -0.237
GACTCTGA | -0.101
ACTTACGC | 0.0413
